# The inconclusive results got no clear call from the source; some entries with a clear call stand among them for comparison. For some assays here: Potencies of inconclusive entries are doubtful fits and often do not repeat. For some assays here: A note “side channel” means that the fit belongs to a control or component signal, not to the main read-out. Calls of active or inactive are those of the source. Unless noted, calls come from the whole dose curve; as a rule, active = well fitted curve in the direction sought with a large enough effect; inconclusive = small, poorly fitted or top-dose-only effect, or another doubt; inactive = no such curve, though single readings can be large; an effect the other way counts as inactive or inconclusive.
# Tests used:
# [1] = qHTS Assay for Identification of Small Molecule Agonists for Hypoxia Response Element Signaling Pathway (AID 914; active = well fitted activation curve with a large enough effect in the signal ratio, with a control signal flat, not every such curve was filed as active; inconclusive = small, poorly fitted or top-dose-only effect, or effect the other way, or a change in a side signal; the % refers to the signal ratio; note: potency is the fitted concentration of half-maximal effect); details: ME-180 (cervical carcinoma) HRE-bla reporter, beta-lactamase ratio, CoCl2, 17 h; activation: stronger effect = higher value
# Method in brief: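 HRE-bla ME-180 cells with beta-lactamase reporter under hypoxia response element, compounds with EC50 CoCl2 for 17 hours at 37 C. CCF4 substrate, 460nm/530nm emission ratio gave %Activity; AC50 from titration series.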
# [2] = target: Thioredoxin reductase 1, cytoplasmic (Rattus norvegicus) (UniProt O89049); experiment: qHTS Assay for Inhibitors of Mammalian Selenoprotein Thioredoxin Reductase 1 (TrxR1) (AID 488773); details: Potency: inhibition; note: nearly all actives have a fitted effect of over 40% in size; note: potency is the fitted concentration of half-maximal effect;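 for activity change, negative = inhibition: drop in NADPH fluorescence over an 8 min run after selenite addition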
# Chain of UniProt O89049 (O89049 whole entry, looked up): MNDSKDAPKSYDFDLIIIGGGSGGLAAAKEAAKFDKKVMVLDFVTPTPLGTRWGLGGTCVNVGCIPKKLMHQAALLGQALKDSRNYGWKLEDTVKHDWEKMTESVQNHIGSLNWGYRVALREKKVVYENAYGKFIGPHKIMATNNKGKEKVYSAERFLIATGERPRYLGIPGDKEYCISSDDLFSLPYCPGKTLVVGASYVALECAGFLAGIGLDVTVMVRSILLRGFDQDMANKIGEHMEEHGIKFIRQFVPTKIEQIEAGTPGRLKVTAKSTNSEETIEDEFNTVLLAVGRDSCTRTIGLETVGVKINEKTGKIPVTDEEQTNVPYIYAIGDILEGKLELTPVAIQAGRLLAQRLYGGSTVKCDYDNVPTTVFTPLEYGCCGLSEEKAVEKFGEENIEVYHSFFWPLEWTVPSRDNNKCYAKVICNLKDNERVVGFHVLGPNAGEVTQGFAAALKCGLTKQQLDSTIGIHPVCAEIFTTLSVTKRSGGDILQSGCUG
# Method in brief: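 Steps: enzyme (90 nM) plus NADPH (400 uM final), 5 min at ~22 deg C; compound added, 15 min; selenite (400 uM final) added; fluorescence followed for 8 min. Concentration-response curves derived from the normalized delta values.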
# [3] = target: M-phase phosphoprotein 8 (Homo sapiens) (UniProt Q99549); experiment: qHTS Validation Assay for Inhibitors for MPP8 Chromodomain Interactions with Methylated Histone Tails (AID 488949); details: AlphaScreen MPP8 binding to H3K9me3 peptide; activity change, negative = inhibition: at 57.1 µM (top of the series) unless noted; note: nearly all actives have a fitted effect of over 55% in size; note: potency is the fitted concentration of half-maximal effect;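 for activity change, negative = inhibition: AlphaScreen signal from MPP8 chromodomain bound to biotinylated H3K9me3 peptide; top concentration of the series differs between compounds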
# Chain of UniProt Q99549 (Q99549 whole entry, looked up): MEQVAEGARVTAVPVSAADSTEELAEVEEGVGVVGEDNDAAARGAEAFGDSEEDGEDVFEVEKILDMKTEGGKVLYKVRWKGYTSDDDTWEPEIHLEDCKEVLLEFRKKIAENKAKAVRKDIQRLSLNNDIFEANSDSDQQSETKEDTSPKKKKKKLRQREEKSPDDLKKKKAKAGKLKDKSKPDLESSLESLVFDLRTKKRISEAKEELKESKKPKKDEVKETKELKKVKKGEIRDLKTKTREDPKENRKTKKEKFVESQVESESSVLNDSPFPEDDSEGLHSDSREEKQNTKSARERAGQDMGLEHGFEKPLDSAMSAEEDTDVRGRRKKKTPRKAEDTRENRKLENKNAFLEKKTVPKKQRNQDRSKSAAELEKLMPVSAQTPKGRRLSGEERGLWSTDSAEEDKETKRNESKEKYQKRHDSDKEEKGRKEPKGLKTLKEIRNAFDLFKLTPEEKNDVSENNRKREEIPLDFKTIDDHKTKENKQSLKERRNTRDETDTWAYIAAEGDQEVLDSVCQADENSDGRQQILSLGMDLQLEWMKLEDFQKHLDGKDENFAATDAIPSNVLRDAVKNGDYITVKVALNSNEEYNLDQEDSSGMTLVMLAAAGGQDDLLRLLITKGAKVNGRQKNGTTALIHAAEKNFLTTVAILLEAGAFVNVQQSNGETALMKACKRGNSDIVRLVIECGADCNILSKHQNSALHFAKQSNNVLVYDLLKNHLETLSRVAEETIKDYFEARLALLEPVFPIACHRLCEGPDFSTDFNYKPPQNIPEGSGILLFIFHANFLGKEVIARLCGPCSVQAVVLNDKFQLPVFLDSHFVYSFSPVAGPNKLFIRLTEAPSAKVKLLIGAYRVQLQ
# Method in brief: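 AlphaScreen proximity signal from streptavidin donor and Ni-chelate acceptor beads (10 ug/mL each) reported binding of MPP8 to trimethyl-K9 H3(1-18) peptide, both at 50 nM. The complex formed 30 min before a 30 min compound exposure at room temperature, in PBS pH 7.4.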
# [4] = target: Transient receptor potential cation channel subfamily V member 1 (Homo sapiens) (UniProt Q8NER1); experiment: HTS Assay for Compounds that Act as Enhancers of the Vanilloid Receptor 1 (AID 488979); note: potency is the fitted concentration of half-maximal effect
# Chain of UniProt Q8NER1 (Q8NER1 whole entry, looked up): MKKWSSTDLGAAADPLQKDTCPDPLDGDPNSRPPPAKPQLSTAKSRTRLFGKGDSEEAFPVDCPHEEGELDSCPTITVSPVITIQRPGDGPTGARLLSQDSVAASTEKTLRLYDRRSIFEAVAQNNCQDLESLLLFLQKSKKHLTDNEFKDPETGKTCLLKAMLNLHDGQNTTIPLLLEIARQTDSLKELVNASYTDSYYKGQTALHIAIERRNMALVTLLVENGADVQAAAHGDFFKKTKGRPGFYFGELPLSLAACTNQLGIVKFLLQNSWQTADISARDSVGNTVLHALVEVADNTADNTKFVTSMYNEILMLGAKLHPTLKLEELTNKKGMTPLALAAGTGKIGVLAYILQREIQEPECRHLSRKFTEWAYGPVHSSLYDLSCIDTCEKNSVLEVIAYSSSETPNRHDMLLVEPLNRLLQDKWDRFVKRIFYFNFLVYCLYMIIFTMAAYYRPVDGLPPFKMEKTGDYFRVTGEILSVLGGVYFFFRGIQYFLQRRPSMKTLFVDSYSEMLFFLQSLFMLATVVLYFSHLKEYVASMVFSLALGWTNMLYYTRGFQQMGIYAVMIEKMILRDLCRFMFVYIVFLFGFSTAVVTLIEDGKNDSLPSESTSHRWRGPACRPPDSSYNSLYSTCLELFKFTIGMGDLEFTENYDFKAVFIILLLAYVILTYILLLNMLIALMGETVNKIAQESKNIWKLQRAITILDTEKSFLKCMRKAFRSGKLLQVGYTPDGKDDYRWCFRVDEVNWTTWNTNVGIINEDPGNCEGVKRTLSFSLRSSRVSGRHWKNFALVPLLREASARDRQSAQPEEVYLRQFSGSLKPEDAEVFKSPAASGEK
# Method in brief: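 TRPV1-expressing cells loaded with Fluo-8 calcium dye; compounds added and calcium influx read kinetically for 3 min (agonist phase), then capsaicin at EC20 added and read 2 min more for enhancement. Fluorescence ex 480/em 520 nm.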
# [5] = target: Tyrosine-protein phosphatase non-receptor type substrate 1 (Homo sapiens) + Leukocyte surface antigen CD47 (Homo sapiens) (UniProt P78324+Q08722); experiment: CD47-SIRPalpha protein protein interaction - HTRF assay qHTS validation (AID 1347058; active = well fitted curve in the direction sought with a large enough effect in the signal ratio, not every such curve was filed as active; inconclusive = small, poorly fitted or top-dose-only effect, or effect the other way, or a change in a side signal; inactive = no such curve, though single readings can be large or run the other way; the % refers to the signal ratio; note: potency is the fitted concentration of half-maximal effect;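 for activity change, negative = inhibition: recombinant soluble extracellular CD47 with His tag and biotinylated SIRPalpha domains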)
# Chain of UniProt P78324 (P78324 whole entry, looked up, the tested form may be a part): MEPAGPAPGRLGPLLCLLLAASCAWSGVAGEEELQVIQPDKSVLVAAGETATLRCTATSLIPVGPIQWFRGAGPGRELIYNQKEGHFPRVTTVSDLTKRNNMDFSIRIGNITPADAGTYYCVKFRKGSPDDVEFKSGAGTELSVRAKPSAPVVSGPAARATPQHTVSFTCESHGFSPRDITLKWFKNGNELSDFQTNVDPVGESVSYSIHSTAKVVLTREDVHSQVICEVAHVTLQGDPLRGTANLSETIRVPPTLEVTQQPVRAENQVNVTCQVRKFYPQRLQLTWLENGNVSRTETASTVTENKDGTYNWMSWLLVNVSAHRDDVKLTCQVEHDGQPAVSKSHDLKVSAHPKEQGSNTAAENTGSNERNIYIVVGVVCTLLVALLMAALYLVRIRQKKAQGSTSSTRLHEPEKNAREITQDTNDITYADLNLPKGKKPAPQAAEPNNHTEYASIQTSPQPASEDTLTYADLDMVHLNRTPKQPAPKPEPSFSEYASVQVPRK
# Chain of UniProt P78324 (Q08722 whole entry, looked up, the tested form may be a part): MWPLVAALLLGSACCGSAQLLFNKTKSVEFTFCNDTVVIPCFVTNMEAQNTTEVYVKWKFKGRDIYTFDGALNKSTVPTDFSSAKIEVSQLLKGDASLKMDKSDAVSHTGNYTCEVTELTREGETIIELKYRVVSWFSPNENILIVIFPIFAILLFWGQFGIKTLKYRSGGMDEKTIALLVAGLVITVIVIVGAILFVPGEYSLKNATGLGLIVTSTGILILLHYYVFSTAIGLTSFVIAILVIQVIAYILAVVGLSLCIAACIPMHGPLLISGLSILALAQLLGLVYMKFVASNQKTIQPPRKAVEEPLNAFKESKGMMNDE
# Method in brief: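 TR-FRET read (Ch1/Ch2 ratio) of soluble extracellular CD47 and Avi-biotinylated SIRPalpha domains in PBS pH 7.4 with 0.05% IGEPAL; 7-point compound titration. Sequential 30 min room-temperature steps; non-biotinylated SIRPalpha as control inhibitor.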
# [6] = target: Papain (Carica papaya) (UniProt P00784); experiment: Primary qHTS assay for inhibitors of the protease papain (AID 1645873);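 note: papain turnover of Z-FR-AMC read as the AMC fluorescence gain over 10 min; potency is the fitted concentration of half-maximal effect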
# Chain of UniProt P00784 (P00784 whole entry, looked up): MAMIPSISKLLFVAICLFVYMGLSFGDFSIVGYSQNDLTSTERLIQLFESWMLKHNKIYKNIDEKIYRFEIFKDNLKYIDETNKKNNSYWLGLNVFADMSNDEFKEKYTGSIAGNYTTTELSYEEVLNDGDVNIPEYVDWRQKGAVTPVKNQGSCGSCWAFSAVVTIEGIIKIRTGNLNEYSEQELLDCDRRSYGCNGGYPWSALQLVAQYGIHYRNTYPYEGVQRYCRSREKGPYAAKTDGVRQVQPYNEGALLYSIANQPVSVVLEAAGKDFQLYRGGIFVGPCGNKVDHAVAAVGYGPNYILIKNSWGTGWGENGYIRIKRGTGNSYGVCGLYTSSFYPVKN
# [7] = qHTS for Activators of Parkin Expression: LOPAC Validation Assay (NLuc Reporter) (AID 720572; note: potency is the fitted concentration of half-maximal effect)
# Method in brief: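 Neuronal line stably carrying a FLuc/NLuc coincidence reporter under the Parkin promoter, seeded 24 h, then dosed in 7-point series for 24 h at 37 C. NLuc luminescence read after FLuc; normalized to DMSO and positive control (100%).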
# [8] = qHTS for Activators of Parkin Expression: LOPAC Validation Assay (FLuc Reporter) (AID 720573; note: potency is the fitted concentration of half-maximal effect)
# Method in brief: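 FLuc signal from Parkin-promoter coincidence reporter neuronal cells, normalized to DMSO and positive control (100%). Cells (1,500/well) pre-incubated 24 h, then exposed to LOPAC compounds in 7-point dose response for 24 h at 37 C, 5% CO2.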
# [9] = qHTS to identify inhibitors of the type 1 interferon - major histocompatibility complex class I in skeletal muscle: primary screen against the NCATS LOPAC collection (AID 1347405); details: iHSKM muscle cells, IFN-b-induced MHC-I HiBiT luminescence, 24 h; activity change, negative = inhibition: at 45.9 µM (top of the series);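 note: lytic HiBiT luminescence reporting HLA-B protein level; potency is the fitted concentration of half-maximal effect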
# Method in brief: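 CRISPR-engineered immortalized human myoblasts (C25cl48) with HiBiT fused to endogenous HLA-B*08:01, stimulated with 4 ng/ml IFN-beta. LOPAC compounds tested as a 7-point 1:4.3 titration (top 46 uM final), 24 h at 37 C; lytic HiBiT luminescence read.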
# [10] = Validation screen for small molecules that induce DNA re-replication in SW480 colon adenocarcinoma cells (AID 504364); note: potency is the fitted concentration of half-maximal effect
# Method in brief: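 SW480 cells (250/well) exposed 48 h at 37 C, 5% CO2, then Hoechst-stained 40 min. Nuclear DNA content imaged by fluorescence scanning (405 nm excitation, 500-530 nm emission); re-replication scored as increased nuclei with elevated intensity.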
# [11] = target: D(1A) dopamine receptor (Homo sapiens) (UniProt P21728); experiment: HTS Assay for Allosteric Agonists of the Human D1 Dopamine Receptor: Primary Screen for Potentiators (AID 488982)
# Chain of UniProt P21728 (P21728 whole entry, looked up): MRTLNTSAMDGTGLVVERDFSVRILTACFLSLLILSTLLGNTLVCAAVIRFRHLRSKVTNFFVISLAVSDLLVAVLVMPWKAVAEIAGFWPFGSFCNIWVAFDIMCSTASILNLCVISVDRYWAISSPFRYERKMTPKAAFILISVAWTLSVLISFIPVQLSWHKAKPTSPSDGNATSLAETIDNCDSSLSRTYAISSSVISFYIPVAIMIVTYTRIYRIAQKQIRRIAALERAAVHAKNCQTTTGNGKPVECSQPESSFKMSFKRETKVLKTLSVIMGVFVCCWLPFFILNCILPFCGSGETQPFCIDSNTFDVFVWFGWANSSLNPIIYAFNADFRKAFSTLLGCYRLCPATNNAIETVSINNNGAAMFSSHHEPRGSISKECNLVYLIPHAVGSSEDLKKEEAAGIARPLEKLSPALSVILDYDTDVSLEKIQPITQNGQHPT
# Method in brief: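 Tetracycline-induced HEK293 T-REx cells force-coupled to calcium signalling were incubated overnight at 30 C and dye-loaded at room temperature. Calcium flux over 180 s after compound addition flagged agonists; a further 180 s read after EC20 dopamine flagged potentiators.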
# Tags give direction and shape of the fitted curve or compound fluorescence and quenching.
smiles,measurement,setting,value
N#CC(C#N)=C(N)/C(C#N)=C/c1ccc(O)cc1,Potency,[1],"inconclusive: 15.8 µM [inhibitor, partial curve, poor fit]"
same,Potency,[2],"inconclusive: 33.6 µM [inhibitor, single point]"
same,Potency,[3],"inconclusive: 631 nM [inhibitor, full curve, poor fit] and inactive"
same,Potency,[4],"inconclusive: 14.1 µM [activator, single point]"
same,Potency,[5],"inconclusive: 6.56 µM [side channel, falling, partial curve]"
same,Potency,[6],"inconclusive: 5.62 µM [inhibitor, partial curve, poor fit]"
CC(=O)SC1CC2=CC(=O)CC[C@]2(C)C2CC[C@@]3(C)C(CC[C@@]34CCC(=O)O4)C12 (stereo not given in full),Potency,[7],"inconclusive: 20.6 µM [activator, single point]"
same,Potency,[8],"inconclusive: 29.1 µM [activator, single point]"
same,Potency,[9],"inconclusive: 39.8 µM [inhibitor, single point]"
COc1cc([C@@H]2c3cc4c(cc3[C@H](O)C3COC(=O)[C@@H]32)OCO4)cc(OC)c1OC (stereo not given in full),Potency,[8],inactive
same,Potency,[9],"inconclusive: 0.199 µM [inhibitor, full curve, poor fit]"
NC1(C(=O)O)CCCCC1,Potency,[2],inactive
same,Potency,[10],inactive
same,Potency,[5],inactive
CCC1(O)CC2CN(CCc3c([nH]c4ccccc34)[C@@](C(=O)OC)(c3cc4c(cc3OC)N(C=O)C3[C@]45CCN4CC=C[C@@](CC)([C@@H](OC(C)=O)[C@]3(O)C(=O)OC)[C@H]45)C2)C1 (stereo not given in full),Potency,[2],inactive
same,Potency,[3],"inconclusive: 70.8 µM [inhibitor, partial curve, poor fit]"
same,Potency,[4],"inconclusive: 31.6 µM [activator, single point]"
same,Potency,[11],inactive
same,Potency,[10],"inconclusive: 0.0164 µM [activator, full curve, poor fit]"
same,Potency,[9],"inconclusive: 0.501 µM [inhibitor, full curve, poor fit]"

# — PubChem BioAssay (NCATS)
